Assay results reported in patent US11925679B2, “H3.3 CTL peptides and uses thereof” (The Regents of the University of California, priority 2015, dated 2024).

Tested on: H3.3.K27M (26-35)-stimulated CD8+ T cell lines
Assay: IFN-γ ELISA of peptide-stimulated CD8+ T cell lines against peptide-loaded T2 cells
Conditions: compared to T2 cells loaded with H3.3.Non-M (26-35), cap6D or nothing

RMSAPSTGGV [H3.3.K27M (26-35)]
IFN-γ production in response to peptide-loaded T2 target cells: peptide-dose-dependent increases of IFN-γ production
